The results in this text go back to article PMC12820563.

The other results are listed elsewhere or left out. The list includes weakly bound sequences.

This experiment concerns the target T1, MBP-FoxP3dN (UniProt Q99JB6).
T1 sequence: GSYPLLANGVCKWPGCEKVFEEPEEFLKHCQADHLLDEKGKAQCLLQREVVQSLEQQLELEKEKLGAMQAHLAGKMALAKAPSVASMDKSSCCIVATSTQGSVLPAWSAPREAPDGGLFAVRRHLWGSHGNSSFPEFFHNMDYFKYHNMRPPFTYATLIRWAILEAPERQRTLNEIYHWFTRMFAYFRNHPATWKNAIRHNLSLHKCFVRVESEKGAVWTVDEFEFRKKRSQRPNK
Nature of the experiment: PD-seq (MBP pull-down with sequencing). Conditions: 20 mM Tris-HCl pH 7.5, 100 mM NaCl, 1.5 mM MgCl2, 0.4 uM protein, 0.1 uM dsDNA library, 30 min, room temperature, amylose pull-down; high values mean tight binding; double strand, one strand shown.
On to “GATGATTGTTCTCCCAGCTGATGAATTAATACGGTCGAGTAAACAAATTTTCCTAATCTTTCTGTTCAAGCGCCATCTAC”, for which the binding signal (RPM ratio (pull-down/input)) came out at 0.434.
For “GATGATTGTTCTCCCAGCTGATGAATTCAACGGCTCGAGTAAACAAATTTTCCTAATCTTTCTGTTCAAGCGCCATCTAC” the value was 0.27; for “GATGATTGTTCTCCCAGCTGATGAATTTTCGAATTCGAGTAAACAAATTTTCCTAATCTTTCTGTTCAAGCGCCATCTAC”, 0.732.
For “GATGATTGTTCTCCCAGCTGATGAATTTGTGGAATCGAGTAAACAAATTTTCCTAATCTTTCTGTTCAAGCGCCATCTAC” the value was 0.752.
Under “GATGATTGTTCTCCCAGCTGATGAATTCTTTCTCTCGAGTAAACAAATTTTCCTAATCTTTCTGTTCAAGCGCCATCTAC” stands 0.189; under “GATGATTGTTCTCCCAGCTGATGAATTGGCCCGTTCGAGTAAACAAATTTTCCTAATCTTTCTGTTCAAGCGCCATCTAC”, 0.297.
For “GATGATTGTTCTCCCAGCTGATGAATTCCGCTCCTCGAGTAAACAAATTTTCCTAATCTTTCTGTTCAAGCGCCATCTAC”, the binding signal (RPM ratio (pull-down/input)) stood at 0.997.
For the sequence “GATGATTGTTCTCCCAGCTGATGAATTCAGGTGGTCGAGTAAACAAATTTTCCTAATCTTTCTGTTCAAGCGCCATCTAC”, the binding signal (RPM ratio (pull-down/input)) came out at 0.375.
As for “GATGATTGTTCTCCCAGCTGATGAATTAGCACATTCGAGTAAACAAATTTTCCTAATCTTTCTGTTCAAGCGCCATCTAC”, the binding signal (RPM ratio (pull-down/input)) amounted to 0.544.
For “GATGATTGTTCTCCCAGCTGATGAATTACAGCCGTCGAGTAAACAAATTTTCCTAATCTTTCTGTTCAAGCGCCATCTAC” the value was 0.412; for “GATGATTGTTCTCCCAGCTGATGAATTCCACTCATCGAGTAAACAAATTTTCCTAATCTTTCTGTTCAAGCGCCATCTAC”, 0.57.
On to “GATGATTGTTCTCCCAGCTGATGAATTTGTTGGCTCGAGTAAACAAATTTTCCTAATCTTTCTGTTCAAGCGCCATCTAC”, for which the binding signal (RPM ratio (pull-down/input)) came to 7.
Under “GATGATTGTTCTCCCAGCTGATGAATTTATGAGGTCGAGTAAACAAATTTTCCTAATCTTTCTGTTCAAGCGCCATCTAC” stands 1.07.
In the case of “GATGATTGTTCTCCCAGCTGATGAATTATTGGAGTCGAGTAAACAAATTTTCCTAATCTTTCTGTTCAAGCGCCATCTAC”, the binding signal (RPM ratio (pull-down/input)) is 0.296.
For “GATGATTGTTCTCCCAGCTGATGAATTTTCTCCCTCGAGTAAACAAATTTTCCTAATCTTTCTGTTCAAGCGCCATCTAC”, the binding signal (RPM ratio (pull-down/input)) is 0.212.
As to “GATGATTGTTCTCCCAGCTGATGAATTTCGCGCTTCGAGTAAACAAATTTTCCTAATCTTTCTGTTCAAGCGCCATCTAC”, the binding signal (RPM ratio (pull-down/input)) came to 1.03.
For “GATGATTGTTCTCCCAGCTGATGAATTGGTTAGCTCGAGTAAACAAATTTTCCTAATCTTTCTGTTCAAGCGCCATCTAC” the value was 1.02; for “GATGATTGTTCTCCCAGCTGATGAATTTGAACGATCGAGTAAACAAATTTTCCTAATCTTTCTGTTCAAGCGCCATCTAC”, 0.224; for “GATGATTGTTCTCCCAGCTGATGAATTCCGCTTATCGAGTAAACAAATTTTCCTAATCTTTCTGTTCAAGCGCCATCTAC”, 1.8.
For “GATGATTGTTCTCCCAGCTGATGAATTATTGACATCGAGTAAACAAATTTTCCTAATCTTTCTGTTCAAGCGCCATCTAC” the value was 2.27; for “GATGATTGTTCTCCCAGCTGATGAATTACTTTCATCGAGTAAACAAATTTTCCTAATCTTTCTGTTCAAGCGCCATCTAC”, 0.366; for “GATGATTGTTCTCCCAGCTGATGAATTCGAAAGATCGAGTAAACAAATTTTCCTAATCTTTCTGTTCAAGCGCCATCTAC”, 0.184.
For “GATGATTGTTCTCCCAGCTGATGAATTTAGTTGTTCGAGTAAACAAATTTTCCTAATCTTTCTGTTCAAGCGCCATCTAC” the value was 5.93; for “GATGATTGTTCTCCCAGCTGATGAATTTAACCATTCGAGTAAACAAATTTTCCTAATCTTTCTGTTCAAGCGCCATCTAC”, 0.385.
For “GATGATTGTTCTCCCAGCTGATGAATTAATGACTTCGAGTAAACAAATTTTCCTAATCTTTCTGTTCAAGCGCCATCTAC”, the binding signal (RPM ratio (pull-down/input)) came to 0.595.
Under “GATGATTGTTCTCCCAGCTGATGAATTTCGATGATCGAGTAAACAAATTTTCCTAATCTTTCTGTTCAAGCGCCATCTAC” stands 0.815.
For “GATGATTGTTCTCCCAGCTGATGAATTACATCAGTCGAGTAAACAAATTTTCCTAATCTTTCTGTTCAAGCGCCATCTAC” the value was 0.493; for “GATGATTGTTCTCCCAGCTGATGAATTCATAGAATCGAGTAAACAAATTTTCCTAATCTTTCTGTTCAAGCGCCATCTAC”, 0.24; for “GATGATTGTTCTCCCAGCTGATGAATTGTACTTGTCGAGTAAACAAATTTTCCTAATCTTTCTGTTCAAGCGCCATCTAC”, 0.999.
Under “GATGATTGTTCTCCCAGCTGATGAATTCGTAACCTCGAGTAAACAAATTTTCCTAATCTTTCTGTTCAAGCGCCATCTAC” stands 0.515; under “GATGATTGTTCTCCCAGCTGATGAATTCTGTGCGTCGAGTAAACAAATTTTCCTAATCTTTCTGTTCAAGCGCCATCTAC”, 1.02.
Consider “GATGATTGTTCTCCCAGCTGATGAATTCGTCATGTCGAGTAAACAAATTTTCCTAATCTTTCTGTTCAAGCGCCATCTAC”, for which the binding signal (RPM ratio (pull-down/input)) was 1.92.
